According to the supplement of paper PMC8728848:
The list shows a part of the results.

What was measured:
Test in all cases: glycan array binding signal (z-score within array); higher = stronger binding
Details in all cases: glycan notation: IUPAC condensed, linker removed
[1] = biological target: GalNAc3S(b1-4)GlcNAc
Procedure, shortened: (§1)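 Glycan array binding is given as a within-array Z-score, which can be read as non-binding when negative. The arrays, 3228 of them, came from the Consortium for Functional Glycomics database and were retained only where the protein sequence was available. Z-scores were averaged across arrays of the same protein sequence at different concentrations or buffers and across linkers.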

[2] = biological target: GalNAc3S(b1-4)GlcNAc3S
Procedure, shortened: as §1

[3] = biological target: GalNAc3S(b1-4)[Fuc(a1-3)]GlcNAc
Procedure, shortened: as §1

[4] = biological target: GalNAc4S6S(b1-4)GlcNAc
Procedure, shortened: as §1

[5] = biological target: GalNAc6S(b1-4)GlcNAc
Procedure, shortened: as §1

[6] = biological target: Glc(a1-4)Glc
Procedure, shortened: as §1

[7] = biological target: Glc(a1-4)Glc(a1-4)Glc(a1-4)Glc
Procedure, shortened: as §1

[8] = biological target: Glc(a1-6)Glc(a1-6)Glc
Procedure, shortened: as §1

[9] = biological target: Glc(a1-6)Glc(a1-6)Glc(a1-6)Glc
Procedure, shortened: as §1

[10] = biological target: Glc(b1-4)Glc
Procedure, shortened: as §1

[11] = biological target: Glc(b1-6)Glc
Procedure, shortened: as §1

[12] = biological target: GlcA(b1-3)Gal
Procedure, shortened: as §1

[13] = biological target: GlcA(b1-3)GlcNAc
Procedure, shortened: as §1

[14] = biological target: GlcA(b1-6)Gal
Procedure, shortened: as §1

[15] = biological target: GlcA3S(b1-3)Gal(b1-4)GlcNAc(b1-2)Man
Procedure, shortened: as §1

[16] = biological target: GlcA3S(b1-3)Gal(b1-4)GlcNAc(b1-3)Gal(b1-4)Glc
Procedure, shortened: as §1

[17] = biological target: GlcNAc(a1-3)Gal(b1-4)GlcNAc
Procedure, shortened: as §1

[18] = biological target: GlcNAc(a1-4)Gal(b1-3)GlcNAc
Procedure, shortened: as §1

[19] = biological target: GlcNAc(a1-4)Gal(b1-4)GalNAc
Procedure, shortened: as §1

[20] = biological target: GlcNAc(a1-4)Gal(b1-4)GlcNAc
Procedure, shortened: as §1

[21] = biological target: GlcNAc(a1-4)Gal(b1-4)GlcNAc(b1-3)Gal(b1-4)Glc
Procedure, shortened: as §1

[22] = biological target: GlcNAc(a1-4)Gal(b1-4)GlcNAc(b1-3)Gal(b1-4)GlcNAc
Procedure, shortened: as §1

[23] = biological target: GlcNAc(a1-4)Gal(b1-4)GlcNAc(b1-3)Gal(b1-4)GlcNAc(b1-3)Gal(b1-4)GlcNAc
Procedure, shortened: as §1

[24] = biological target: GlcNAc(a1-4)Gal(b1-4)GlcNAc(b1-3)Gal(b1-4)[Fuc(a1-3)]GlcNAc(b1-3)Gal(b1-4)[Fuc(a1-3)]GlcNAc
Procedure, shortened: as §1

[25] = biological target: GlcNAc(a1-6)Gal(b1-4)GlcNAc
Procedure, shortened: as §1

[26] = biological target: GlcNAc(b1-2)Gal(b1-3)GalNAc
Procedure, shortened: as §1

[27] = biological target: GlcNAc(b1-2)Gal(b1-3)GlcNAc
Procedure, shortened: as §1

[28] = biological target: GlcNAc(b1-2)Man(a1-3)[GlcNAc(b1-2)Man(a1-6)]Man(b1-4)GlcNAc(b1-4)GlcNAc
Procedure, shortened: as §1

[29] = biological target: GlcNAc(b1-2)Man(a1-3)[GlcNAc(b1-2)Man(a1-6)]Man(b1-4)GlcNAc(b1-4)[Fuc(a1-6)]GlcNAc
Procedure, shortened: as §1

[30] = biological target: GlcNAc(b1-2)Man(a1-3)[GlcNAc(b1-4)][GlcNAc(b1-2)Man(a1-6)]Man(b1-4)GlcNAc(b1-4)GlcNAc
Procedure, shortened: as §1

[31] = biological target: GlcNAc(b1-2)Man(a1-3)[GlcNAc(b1-4)][GlcNAc(b1-2)Man(a1-6)]Man(b1-4)GlcNAc(b1-4)[Fuc(a1-6)]GlcNAc
Procedure, shortened: as §1

[32] = biological target: GlcNAc(b1-2)[GlcNAc(b1-4)]Man(a1-3)[GlcNAc(b1-2)Man(a1-6)]Man(b1-4)GlcNAc(b1-4)GlcNAc
Procedure, shortened: as §1

[33] = biological target: GlcNAc(b1-2)[GlcNAc(b1-4)]Man(a1-3)[GlcNAc(b1-4)][GlcNAc(b1-2)Man(a1-6)]Man(b1-4)GlcNAc(b1-4)GlcNAc
Procedure, shortened: as §1

[34] = biological target: GlcNAc(b1-2)[GlcNAc(b1-4)]Man(a1-3)[GlcNAc(b1-4)][GlcNAc(b1-2)[GlcNAc(b1-6)]Man(a1-6)]Man(b1-4)GlcNAc(b1-4)GlcNAc
Procedure, shortened: as §1

[35] = biological target: GlcNAc(b1-2)[GlcNAc(b1-4)]Man(a1-3)[GlcNAc(b1-4)][GlcNAc(b1-2)[GlcNAc(b1-6)]Man(a1-6)]Man(b1-4)GlcNAc(b1-4)[Fuc(a1-6)]GlcNAc
Procedure, shortened: as §1

[36] = biological target: GlcNAc(b1-2)[GlcNAc(b1-6)]Man(a1-6)[GlcNAc(b1-2)Man(a1-3)]Man(b1-4)GlcNAc(b1-4)GlcNAc
Procedure, shortened: as §1

[37] = biological target: GlcNAc(b1-2)[GlcNAc(b1-6)]Man(a1-6)[GlcNAc(b1-2)Man(a1-3)]Man(b1-4)GlcNAc(b1-4)[Fuc(a1-6)]GlcNAc
Procedure, shortened: as §1

[38] = biological target: GlcNAc(b1-2)[GlcNAc(b1-6)]Man(a1-6)[GlcNAc(b1-4)][GlcNAc(b1-2)Man(a1-3)]Man(b1-4)GlcNAc(b1-4)GlcNAc
Procedure, shortened: as §1

[39] = biological target: GlcNAc(b1-3)Fuc
Procedure, shortened: as §1

[40] = biological target: GlcNAc(b1-3)Gal
Procedure, shortened: as §1

[41] = biological target: GlcNAc(b1-3)Gal(b1-3)GalNAc
Procedure, shortened: as §1

[42] = biological target: GlcNAc(b1-3)Gal(b1-4)Glc
Procedure, shortened: as §1

[43] = biological target: GlcNAc(b1-3)Gal(b1-4)GlcNAc
Procedure, shortened: as §1

[44] = biological target: GlcNAc(b1-3)Gal(b1-4)GlcNAc(b1-2)Man(a1-3)[GlcNAc(b1-3)Gal(b1-4)GlcNAc(b1-2)Man(a1-6)]Man(b1-4)GlcNAc(b1-4)GlcNAc
Procedure, shortened: as §1

[45] = biological target: GlcNAc(b1-3)Gal(b1-4)GlcNAc(b1-2)Man(a1-3)[GlcNAc(b1-3)Gal(b1-4)GlcNAc(b1-2)Man(a1-6)]Man(b1-4)GlcNAc(b1-4)[Fuc(a1-6)]GlcNAc
Procedure, shortened: as §1

B1: AAA (Anguilla anguilla), Q7SIC1 (protein)
chain: VIPEGYTQENVAVRGKATQSAQLRGEHAANSEASNAIDGNRDSNFYHGSCTHSSGQANPWWRVDLLQVYTITSVTITNRGDCCGERISGAEINIGQHLASNGVNNPECSVIGSMATGETKTFHCPAPMIGRYVVTYLPTSESLHLCEVEVNVDKPAAA
- glycan array binding signal (z-score) [1]: -0.231
- glycan array binding signal (z-score) [2]: -0.254
- glycan array binding signal (z-score) [3]: -0.2
- glycan array binding signal (z-score) [4]: -0.264
- glycan array binding signal (z-score) [5]: 0.974
- glycan array binding signal (z-score) [6]: -0.131
- glycan array binding signal (z-score) [7]: -0.058
- glycan array binding signal (z-score) [8]: -0.236
- glycan array binding signal (z-score) [9]: -0.135
- glycan array binding signal (z-score) [10]: -0.247
- glycan array binding signal (z-score) [11]: -0.235
- glycan array binding signal (z-score) [12]: 0.003
- glycan array binding signal (z-score) [13]: -0.25
- glycan array binding signal (z-score) [14]: -0.349
- glycan array binding signal (z-score) [15]: -0.179
- glycan array binding signal (z-score) [16]: -0.136
- glycan array binding signal (z-score) [17]: 1.4
- glycan array binding signal (z-score) [18]: -0.011
- glycan array binding signal (z-score) [19]: 0.012
- glycan array binding signal (z-score) [20]: 2.3
- glycan array binding signal (z-score) [21]: 1.66
- glycan array binding signal (z-score) [22]: 1.96
- glycan array binding signal (z-score) [23]: 2.29
- glycan array binding signal (z-score) [24]: 0.711
- glycan array binding signal (z-score) [25]: -0.279
- glycan array binding signal (z-score) [26]: -0.181
- glycan array binding signal (z-score) [27]: -0.295
- glycan array binding signal (z-score) [28]: -0.274
- glycan array binding signal (z-score) [29]: -0.058
- glycan array binding signal (z-score) [30]: 0.635
- glycan array binding signal (z-score) [31]: 0.36
- glycan array binding signal (z-score) [32]: -0.166
- glycan array binding signal (z-score) [33]: -0.121
- glycan array binding signal (z-score) [34]: -0.282
- glycan array binding signal (z-score) [35]: -0.16
- glycan array binding signal (z-score) [36]: -0.226
- glycan array binding signal (z-score) [37]: -0.162
- glycan array binding signal (z-score) [38]: -0.254
- glycan array binding signal (z-score) [39]: -0.071
- glycan array binding signal (z-score) [40]: -0.048
- glycan array binding signal (z-score) [41]: -0.195
- glycan array binding signal (z-score) [42]: -0.116
- glycan array binding signal (z-score) [43]: -0.251
- glycan array binding signal (z-score) [44]: -0.171
- glycan array binding signal (z-score) [45]: -0.212
